Experimental data taken from paper PMC7247158.
No constants are given. Whether binding was seen depends on the method and setting. Binding seen in cells or lysates may run through a third protein. Some binding calls cover weakened binding; strength is not graded here.

Chains of the proteins cited; added tags and fusions are not shown.
UniProt Q13546: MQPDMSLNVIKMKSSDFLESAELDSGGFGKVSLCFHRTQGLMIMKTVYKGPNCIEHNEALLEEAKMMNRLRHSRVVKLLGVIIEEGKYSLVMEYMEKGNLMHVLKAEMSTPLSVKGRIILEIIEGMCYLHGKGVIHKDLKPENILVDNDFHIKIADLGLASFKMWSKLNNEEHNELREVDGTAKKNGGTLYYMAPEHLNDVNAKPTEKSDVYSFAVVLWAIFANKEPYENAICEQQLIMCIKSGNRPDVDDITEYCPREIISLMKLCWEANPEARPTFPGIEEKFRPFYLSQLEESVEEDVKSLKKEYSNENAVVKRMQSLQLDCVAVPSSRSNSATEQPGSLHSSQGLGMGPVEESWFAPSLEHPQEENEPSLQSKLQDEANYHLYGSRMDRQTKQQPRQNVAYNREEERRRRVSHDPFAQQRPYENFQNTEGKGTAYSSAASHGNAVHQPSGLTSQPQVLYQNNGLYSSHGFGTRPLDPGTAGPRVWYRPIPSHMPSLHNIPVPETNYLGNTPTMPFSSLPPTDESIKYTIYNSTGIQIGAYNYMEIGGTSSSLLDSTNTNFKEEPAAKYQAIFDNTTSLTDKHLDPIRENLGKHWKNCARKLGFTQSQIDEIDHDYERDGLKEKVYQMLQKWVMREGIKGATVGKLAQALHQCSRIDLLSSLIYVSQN

What was measured:
[1] = target: endogenous p62 (human (endogenous in HeLa)) (UniProt Q13501); assay: co-IP; endogenous proteins, HeLa cells treated with 10 ng/mL TNFα, 5 min; immunoprecipitated with anti-p62 antibody, immunoblotted for USP20; anti-IgG as negative control
[2] = target: endogenous p62 (human (endogenous in HeLa)) (UniProt Q13501); assay: condition: only later than 5 min after TNFα treatment; co-IP; endogenous proteins, HeLa cells treated with 10 ng/mL TNFα, times later than 5 min; immunoprecipitated with anti-p62 antibody, immunoblotted for USP20
[3] = target: Flag-p62 (p62/sequestosome-1) (human) (UniProt Q13501); assay: co-IP; HA-USP20 and Flag-p62 co-transfected into HeLa cells; lysates (1% Triton X-100, 50 mM Tris-HCl pH 7.5, 150 mM NaCl, 10% glycerol) immunoprecipitated with anti-Flag antibody and G agarose beads at 4 °C for 15 h, immunoblotted with anti-HA
[4] = target: T1, endogenous PKCζ (atypical protein kinase C zeta) (human (endogenous in HeLa)) (UniProt Q05513); assay: condition: only USP20-depleted HeLa cells (siUSP20); co-IP; endogenous proteins, USP20-depleted (siUSP20) HeLa cells treated with 10 ng/mL TNFα for the indicated times; immunoprecipitated with anti-PKCζ antibody, immunoblotted with the indicated antibodies
T1 sequence: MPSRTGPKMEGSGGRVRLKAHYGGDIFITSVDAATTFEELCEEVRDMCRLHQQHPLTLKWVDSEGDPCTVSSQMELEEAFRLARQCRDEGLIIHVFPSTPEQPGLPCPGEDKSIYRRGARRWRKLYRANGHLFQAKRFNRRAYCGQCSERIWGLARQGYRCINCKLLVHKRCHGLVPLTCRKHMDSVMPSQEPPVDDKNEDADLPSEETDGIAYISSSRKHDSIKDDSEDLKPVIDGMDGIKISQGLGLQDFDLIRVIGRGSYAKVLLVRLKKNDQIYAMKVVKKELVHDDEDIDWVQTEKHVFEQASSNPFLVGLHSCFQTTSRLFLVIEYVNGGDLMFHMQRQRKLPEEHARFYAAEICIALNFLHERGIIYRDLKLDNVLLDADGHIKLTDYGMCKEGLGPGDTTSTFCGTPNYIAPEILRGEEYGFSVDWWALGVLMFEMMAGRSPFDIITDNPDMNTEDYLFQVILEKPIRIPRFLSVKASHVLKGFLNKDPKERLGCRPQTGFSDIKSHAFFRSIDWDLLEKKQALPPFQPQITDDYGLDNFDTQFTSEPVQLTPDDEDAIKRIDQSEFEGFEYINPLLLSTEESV

[5] = target: T1, endogenous PKCζ (atypical protein kinase C zeta) (human (endogenous in HeLa)); assay: co-IP; endogenous proteins, control (siCON) HeLa cells treated with 10 ng/mL TNFα for the indicated times; immunoprecipitated with anti-PKCζ antibody, immunoblotted with the indicated antibodies; anti-IgG as negative control

## endogenous USP20 (from UniProt Q9Y2K6 1-914) (enzyme)
[1]
  binding: binds
[2]
  binding: no binding

## HA-USP20 (ubiquitin-specific protease 20, wild type) (from UniProt Q9Y2K6 1-914) (enzyme)
[3]
  binding: binds

## endogenous RIPK1 (receptor interacting protein kinase-1) (from UniProt Q13546 1-671) (enzyme)
[4]
  binding: no binding
[5]
  binding: binds
